# Assay results as given in PMC9227077, “Prediction Models for Brain Distribution of Drugs Based on Biomimetic Chromatographic Data” (Molecules, 2022).
# Legend:
# [1] = Unbound fraction in brain (fu,brain), brain homogenate method; conditions: Kb from literature fu,brain
# Excerpt: However, Kp,uu,brain can be derived from Kp,brain by combining the unbound fraction of the drug in the plasma (fu,p) and in the brain (fu,brain) or the unbound brain volume of distribution, Vu,brain [7]. […] The relevant equations are included in Section 3. Evidently, fu,p is obtained by standard methods for plasma protein binding.
# Experimentally determined Kp,brain values for 42 compounds were obtained from the literature and were converted to logBB. They preferably referred to rat studies in order to achieve homogeneity in the data. Experimental fu,brain values were available from the literature for 39 compounds in the dataset. When more than one value was available, the average was calculated. Most values were determined on rats.
# The decimal logarithm of Kb, logKb, was used for the development of the models.
# [2] = rat brain tissue; cited from earlier work
# human serum albumin = system: human serum albumin; set-up: method as in ref 45 (a number printed in a supplementary file, which may have a reference list of its own: not looked up in the article's list); conditions: pH=7.4, isocratic, 10% acetonitrile; available for 37 compounds, remaining calculated by equation; cited from earlier work
# α1 acid glycoprotein = system: α1 acid glycoprotein; set-up: method as in ref 23, 24, 27, 29, 45 (a number printed in a supplementary file, which may have a reference list of its own: not looked up in the article's list); conditions: pH=7.4, 100% aqueous mobile phase; previously obtained in authors' laboratory; cited from earlier work
# [3] = brain slice method; cited from earlier work
SMILES,logKb exper. [1],"Kp,uu,brain [2]","logk10,HSA (human serum albumin)",logkwAGP (α1 acid glycoprotein),"Vu,brain [3]"
CN1CC[C@]23c4c5ccc(O)c4O[C@H]2[C@@H](O)C=C[C@H]3[C@H]1C5 [Morphine],0.499,0.32,,,
CN(C)CCOC(c1ccccc1)c1ccccc1 [Diphenhydramine],,,0.14,1.87,
CCN(CC)CC(=O)Nc1c(C)cccc1C [Lidocaine],,,0.07,1.25,
COc1ccc2cc([C@H](C)C(=O)O)ccc2c1 [Naproxen],,,1.55,0.20,
CC(C)NCC(O)COc1ccc(CC(N)=O)cc1 (centres unmarked) [Atenolol],0.950,0.03,-1.04,0.10,
CN1C(=O)CN=C(c2ccccc2)c2cc(Cl)ccc21 [Diazepam],,,,1.80,20.00 mL/g brain
